Reference: PubChem BioAssay AID651820 (National Center for Advancing Translational Sciences (NCATS), 2012)
The whole screen tested about 340,000 compounds, of which about 12,000 (3.5%) were called active. The shares of active, inactive and inconclusive entries below differ from those in the screen. Calls come from the whole dose curve; as a rule, active = well fitted inhibition curve with a large enough effect; inconclusive = small, poorly fitted or top-dose-only effect, or another doubt; inactive = no such curve, though single readings can be large or run the other way. Potencies of inconclusive entries are left out as doubtful fits.

assay: qHTS Assay for Inhibitors of Hepatitis C Virus (HCV); details: Huh7.5.1 HCVcc-Cre (HCVcc is cell-culture hepatitis C virus) infection, luciferase reporter, 44 h; series mostly up to 41.8 µM
Outline: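 Seed cells (1,000/well) for 4 h; treat with compound and infect with HCVcc-Cre, moi about 0.5. Incubate 44 h, then detect luciferase activity.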
Potency is the fitted concentration of half-maximal effect; tags give direction and shape of the fitted curve.

Structure (SMILES) | Potency
COc1ccc(C)cc1NC(=S)NC(C)c1ccc(OC)c(OC)c1 (configuration not stated) | active: 11.2 µM
Oc1ccccc1CNc1ncc(Br)cc1Br | inconclusive [inhibitor, single point]
CN(CC(=O)Nc1ccc(Cl)c(C(F)(F)F)c1)C(=O)Cc1c[nH]c2ccccc12 | inconclusive [inhibitor, single point]
CCCCc1c(C)nc2ccc(Br)cc2c1SCCC#N | inconclusive [inhibitor, partial curve, poor fit]
COc1ccc(OC)c(/C=N/N=C(\N)c2nonc2N)c1 | inconclusive [inhibitor, single point]
COc1ccc2c(c1)c(C(=O)N/N=C/c1ccc(O)c(O)c1)c(C)n2C | inconclusive [inhibitor, single point]
CC(C)(C)c1cc2ncnc(N3CCCCC3)c2s1 | inconclusive [inhibitor, full curve, poor fit]
Cn1c(CNC(=O)c2ccc(Cl)cc2)nnc1SCC(=O)Nc1sc2c(c1C#N)CCCC2 | inconclusive [inhibitor, partial curve]
Cc1ccc(NC(=O)c2ccc(F)cc2)nc1 | inactive
COc1ccccc1/C=C/C=N/N1CCN(Cc2cccc3ccccc23)CC1 | inconclusive [inhibitor, partial curve]
COc1ccccc1CCNC(=O)c1csc2c1CCCC2 | inconclusive [inhibitor, single point]
COc1ccc(Cl)c2sc(N(CCN(C)C)C(=O)CCS(=O)(=O)c3ccc(C)cc3)nc12 | inconclusive [inhibitor, partial curve, poor fit]
CCN(CC)S(=O)(=O)c1ccc(NS(=O)(=O)c2cccc(C)c2)cc1 | inactive
N#C/C(=C(/O)c1ccc(F)cc1)c1nc2ccccc2s1 | inconclusive [inhibitor, partial curve]
CCCCn1c(N)c(N(CC(C)C)C(=O)C2CCN(S(=O)(=O)c3ccccc3)CC2)c(=O)[nH]c1=O | inconclusive [inhibitor, single point]
CCCCn1nc(NC(=O)CC(C)C)c2cc3cc(OC)ccc3nc21 | inconclusive [inhibitor, partial curve]
CCN(CC(=O)Nc1ccccc1OC)C(=O)c1ccccc1Sc1ccccc1C#N | inactive
CCCCNC(=O)C(C)N(CCN(C)C)C(=O)CCCN1C(=O)NC(c2ccc([N+](=O)[O-])cc2)C(C(=O)OCc2ccccc2)=C1C (configuration not stated) | active: 22.4 µM
Cn1nnc2c[n+](CC(=O)c3ccc(Cl)cc3)cc(Br)c21 | inconclusive [inhibitor, single point]
Cc1c(CC(=O)N2CCN(C(=O)C3COc4ccccc4O3)CC2)c(=O)oc2c(C)c(O)ccc12 (configuration not stated) | inconclusive [inhibitor, partial curve]
Cc1nc2ccc(S(=O)(=O)NCC(=O)NCc3ccc(Cl)cc3)cc2s1 | inactive
CCN(CC)S(=O)(=O)c1cc(NC(=O)CNc2cccc(S(=O)(=O)N3CCCC3)c2)ccc1C | active: 0.562 µM
CCSc1nc(-c2ccc(OC)cc2)cc(-c2ccc(OC)cc2)c1C#N | inconclusive [inhibitor, full curve]

Structure (SMILES) | Potency
Cc1cc(O)c2c3c(c(=O)oc2c1)CCC(C)C3 (configuration not stated) | active: 8.91 µM
COc1ccc2nc(SCC(=O)N(C)C3CCCCC3)c(C#N)cc2c1 | inconclusive [inhibitor, full curve]
FC(F)(F)c1nnc(Nc2ccc(Cl)cc2)s1 | inconclusive [inhibitor, partial curve]
COC(=O)c1sc(N)c(C(=O)OC)c1COC(=O)C1CC(=O)N(Cc2ccco2)C1 (configuration not stated) | inconclusive [inhibitor, single point]
Fc1cccc(F)c1/C=N/NC(=S)Nc1cccnc1 | inconclusive [inhibitor, single point]
CCOC(=O)C1=C(C)Nc2sc(C(=O)c3ccc(F)cc3)c(N)c2C1c1ccc(C(=O)OC)cc1 (configuration not stated) | active: 7.08 µM
Cc1nn(Cc2ccccc2Cl)c(C)c1C(=O)NCCN1C(=O)S/C(=C\c2ccccc2)C1=O | inconclusive [inhibitor, single point]
COc1cc(/C=C/C(=O)OC2CC3CCC2(C)C3(C)C)ccc1O (configuration not stated) | inconclusive [inhibitor, single point]
NS(=O)(=O)c1ccc(CCNC(=O)CSCC(=O)Nc2ccc(Cl)cc2)cc1 | inconclusive [inhibitor, partial curve]
O=C(O)/C=C/C(=O)NNC(=O)c1ccccc1Br | inactive
Cc1cc(C)c(S(=O)(=O)N(CC(=O)N2CCCC2)C2CCCCC2)c(C)c1 | inconclusive [inhibitor, partial curve]
Cn1nc(C(=O)Nc2ccc(Cl)c(S(=O)(=O)N3CCOCC3)c2)c2ccccc2c1=O | inconclusive [inhibitor, partial curve]
COC(=O)c1ccc(/C=N/N2CCN(Cc3ccc(C)cc3C)CC2)cc1 | inconclusive [inhibitor, full curve, poor fit]
CC(C)CC(=O)Nc1ccccc1N1CCN(C(=O)c2ccccc2)CC1 | inconclusive [inhibitor, single point]
CCc1ccc2[nH]c3nc(SCc4nnc(-c5ccccc5)o4)nnc3c2c1 | inactive
CC(NCCC(c1ccccc1)c1ccccc1)c1ccccc1 (configuration not stated) | inconclusive [inhibitor, partial curve]
Cc1ccc(NS(=O)(=O)c2ccc3c(c2)C(=O)c2ccccc2C3=O)c(C)c1 | inconclusive [inhibitor, single point]
CCc1ccc(NC(=O)C2CCN(S(=O)(=O)c3ccc4c(c3)CC(C)N4C(C)=O)CC2)cc1 (configuration not stated) | active: 2.82 µM
CCCCC1(C)NC(=O)N(CC(=O)Nc2ccc(Cl)cc2C)C1=O (configuration not stated) | inconclusive [inhibitor, single point]
Cc1ccc(S(=O)(=O)c2ncccc2[N+](=O)[O-])cc1 | inconclusive [inhibitor, single point]
COc1cccc(-c2n[nH]c(=S)n2Cc2ccco2)c1OC | inactive
COc1ccc(CCNC(=O)c2ccc3nc(-c4ccco4)c(-c4ccco4)nc3c2)cc1OC | active: 2.82 µM
O=S(=O)(/N=C/c1ccccc1O)c1cccs1 | inactive

Structure (SMILES) | Potency
O=C(CNC(=O)c1cccnc1)N=Nc1c(O)[nH]c2c(Br)cc(Br)cc12 | inconclusive [inhibitor, single point]
COc1ccc(C2CC(=O)C(C=NCCO)=C(O)C2)cc1 (configuration not stated) | inactive
OCCOCCn1c(CCNc2nc(-c3ccc(F)cc3)cs2)nc2cc(C(F)(F)F)ccc21 | inconclusive [inhibitor, single point]
CN(C(=O)c1ccc(S(=O)(=O)N2CCCC2)cc1)C1CCCCC1 | inconclusive [inhibitor, single point]
COc1cc(CNn2c(C)n[nH]c2=S)cc(Cl)c1OCc1ccc(F)cc1 | inconclusive [inhibitor, partial curve]
Cc1ccc(NS(=O)(=O)c2cccc(C(=O)N3CCN(c4ncccn4)CC3)c2)cc1 | inconclusive [inhibitor, partial curve, poor fit]
Cc1cc(Nc2ccccc2)n(C(=O)c2ccc(Cl)cc2)n1 | inactive
CC(C)C[C@H](NC(=O)c1nc[nH]c1C(=O)NC1CCN(C(=O)OC(C)(C)C)CC1)C(=O)OCc1ccccc1 | inconclusive [inhibitor, single point]
COc1ccc(OC)c(Nc2nc(-c3ccc(O)c(O)c3)cs2)c1 | active: 10 µM
COc1ccc(/C=N\NC(=O)c2ccc([N+](=O)[O-])cc2)cc1COc1c(F)c(F)cc(F)c1F | active: 1.58 µM
COc1cc(/C=C/C(=O)OCC(=O)N(C)Cc2ccccc2)cc(OC)c1OC | inconclusive [inhibitor, partial curve]
Cc1c(NC(=O)c2cc(-c3ccc(F)cc3)nc3ccccc23)c(=O)n(-c2ccccc2)n1C | inconclusive [inhibitor, partial curve]
CC(OC(=O)c1ccc(NS(=O)(=O)c2ccc3[nH]c(=O)[nH]c3c2)cc1)C(=O)Nc1ccc(Cl)cc1 (configuration not stated) | inconclusive [inhibitor, single point]
O=S(=O)(NNc1ncc(C(F)(F)F)cc1Cl)c1ccc(F)cc1F | inactive
COc1cccc(NC(=O)CSc2nnc(Cc3cccn3C)n2-c2ccc(F)cc2)c1 | inactive
CCN(CC)S(=O)(=O)c1cccc(NC(=O)/C=C/c2ccc([N+](=O)[O-])cc2)c1 | inconclusive [inhibitor, single point]
Cn1cc(CCCC(=O)NCc2ccc(F)cc2)c2ccccc21 | inactive
COc1cc(N)c(Cl)cc1C(=O)OCC(=O)c1ccc2c(c1)NC(=O)CO2 | inconclusive [inhibitor, partial curve, poor fit]
O=C(C[N+]1(CC#Cc2ccccc2)CCOCC1)c1ccc(Cl)cc1 | inactive
COc1ccc(-c2nc(NC(=O)Cn3ccc(C(F)(F)F)n3)sc2C)cc1 | inconclusive [inhibitor, single point]
CCC(CO)Oc1cc(NC(=O)c2cccc(OC)c2)c2ncn(C(C)C)c2c1 (configuration not stated) | inconclusive [inhibitor, full curve]
